Tests used:
[1] = target: T1, hGPR55 (HEK293.GPR55) (Homo sapiens, UniProt Q9Y2T6); experiment: Ca2+ Ion Flux assay, HEK293.GPR55; format: cell-based; settings: max. tested 10μM
T1 construct: expressed in transfected cells; host or cells: HEK293

[2] = target: T2, D1 (Homo sapiens, UniProt P21728); experiment: Receptor binding profile of VSN16R; settings: 10µM VSN16R
T2 construct: purchased Cerep; Chantest; DiscoveRx; Multispan; MDS Pharma Services

[3] = target: T3, GAL2 (Homo sapiens, UniProt O43603); experiment: Receptor binding profile of VSN16R; settings: 10µM VSN16R
T3 construct: purchased Cerep; Chantest; DiscoveRx; Multispan; MDS Pharma Services
T3 sequence (O43603 1-387): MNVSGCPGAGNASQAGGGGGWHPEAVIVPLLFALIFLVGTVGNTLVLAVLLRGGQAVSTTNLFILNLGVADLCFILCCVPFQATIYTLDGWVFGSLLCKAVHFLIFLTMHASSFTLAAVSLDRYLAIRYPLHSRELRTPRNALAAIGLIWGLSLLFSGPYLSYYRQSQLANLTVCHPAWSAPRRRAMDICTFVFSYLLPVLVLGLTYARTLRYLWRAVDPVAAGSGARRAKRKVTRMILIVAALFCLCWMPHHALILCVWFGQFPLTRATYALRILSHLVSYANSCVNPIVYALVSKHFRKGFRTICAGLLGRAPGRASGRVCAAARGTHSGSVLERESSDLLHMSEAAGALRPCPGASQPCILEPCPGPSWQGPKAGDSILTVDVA

[4] = tested on: healthy humans; experiment: Phase I single dose: heart rate and blood pressure supine/standing

T1 sequence (Q9Y2T6 whole entry): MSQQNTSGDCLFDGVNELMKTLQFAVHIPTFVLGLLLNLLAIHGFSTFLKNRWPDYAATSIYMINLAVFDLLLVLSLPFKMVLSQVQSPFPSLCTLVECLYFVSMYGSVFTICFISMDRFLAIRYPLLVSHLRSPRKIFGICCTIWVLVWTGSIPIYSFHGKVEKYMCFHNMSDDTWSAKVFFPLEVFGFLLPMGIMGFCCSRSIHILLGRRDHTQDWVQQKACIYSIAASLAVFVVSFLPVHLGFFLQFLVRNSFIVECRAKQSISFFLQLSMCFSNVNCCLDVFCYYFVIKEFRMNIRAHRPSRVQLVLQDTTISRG
T2 sequence (P21728 whole entry): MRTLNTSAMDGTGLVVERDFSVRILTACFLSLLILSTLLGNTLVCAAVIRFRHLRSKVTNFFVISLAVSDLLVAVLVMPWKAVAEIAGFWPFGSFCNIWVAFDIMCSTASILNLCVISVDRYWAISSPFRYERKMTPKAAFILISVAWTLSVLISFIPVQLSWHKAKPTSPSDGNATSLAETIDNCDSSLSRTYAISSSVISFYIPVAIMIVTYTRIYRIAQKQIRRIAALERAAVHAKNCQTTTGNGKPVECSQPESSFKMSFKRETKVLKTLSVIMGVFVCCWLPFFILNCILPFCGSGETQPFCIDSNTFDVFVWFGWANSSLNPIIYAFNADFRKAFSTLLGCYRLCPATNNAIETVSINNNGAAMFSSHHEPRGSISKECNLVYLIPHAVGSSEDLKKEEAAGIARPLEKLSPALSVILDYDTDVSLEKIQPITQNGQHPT

For `C[C@H](CO)NC(=O)c1cccc(/C=C\CCCC(=O)N(C)C)c1` [VSN16R], the “Activity of VSN16R (Max. Tested)” value [1] was “No Activity”, the Activity [2] was “Negligible Activity” and the Activity [3] was “Negligible Activity”. For the same compound, the “Heart Rate Standing” value ([4]; 25mg, 30min) was 72 ± 8 bpm, the “Heart Rate Supine” value ([4]; 25mg, 30min) was 55 ± 10 bpm and the “Systolic Blood Pressure Standing” value ([4]; 25mg, 30min) was 120 ± 6 mm Hg. For the same compound, the “Diastolic Blood Pressure Supine” value ([4]; 25mg, 60min) was 63 ± 6 mm Hg, the “Heart Rate Standing” value ([4]; 25mg, 60min) was 75 ± 9 bpm and the “Systolic Blood Pressure Standing” value ([4]; 25mg, 60min) was 119 ± 8 mm Hg. The “Diastolic Blood Pressure Supine” value ([4]; 800mg, 30min) was 68 ± 14 mm Hg, the “Heart Rate Standing” value ([4]; 800mg, 30min) was 81 ± 10 bpm and the “Heart Rate Supine” value ([4]; 800mg, 30min) was 57 ± 6 bpm. The “Systolic Blood Pressure Standing” value ([4]; 800mg, 30min) was 120 ± 6 mm Hg, the “Diastolic Blood Pressure Supine” value ([4]; 800mg, 60min) was 72 ± 8 mm Hg and the “Heart Rate Standing” value ([4]; 800mg, 60min) was 84 ± 11 bpm.

Reference: paper PMC5522996, “Big conductance calcium‐activated potassium channel openers control spasticity without sedation” (British Journal of Pharmacology, 2017)
